{
  "sequences": {"note": "Amino acid sequences for entries named in this document (tags omitted).", "UniProt P93207": "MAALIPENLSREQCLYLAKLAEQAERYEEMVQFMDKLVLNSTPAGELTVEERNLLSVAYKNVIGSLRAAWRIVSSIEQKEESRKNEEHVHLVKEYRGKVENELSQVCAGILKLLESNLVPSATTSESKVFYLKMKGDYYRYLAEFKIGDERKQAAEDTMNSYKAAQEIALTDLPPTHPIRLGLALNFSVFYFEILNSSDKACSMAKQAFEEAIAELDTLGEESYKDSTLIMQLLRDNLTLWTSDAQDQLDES", "UniProt P93208": "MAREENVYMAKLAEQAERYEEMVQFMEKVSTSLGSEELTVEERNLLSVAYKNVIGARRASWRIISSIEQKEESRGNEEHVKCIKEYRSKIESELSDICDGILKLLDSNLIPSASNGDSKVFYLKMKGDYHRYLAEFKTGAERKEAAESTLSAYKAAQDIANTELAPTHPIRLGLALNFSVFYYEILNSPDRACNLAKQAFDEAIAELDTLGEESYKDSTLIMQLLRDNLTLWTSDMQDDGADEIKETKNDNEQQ", "UniProt P42652": "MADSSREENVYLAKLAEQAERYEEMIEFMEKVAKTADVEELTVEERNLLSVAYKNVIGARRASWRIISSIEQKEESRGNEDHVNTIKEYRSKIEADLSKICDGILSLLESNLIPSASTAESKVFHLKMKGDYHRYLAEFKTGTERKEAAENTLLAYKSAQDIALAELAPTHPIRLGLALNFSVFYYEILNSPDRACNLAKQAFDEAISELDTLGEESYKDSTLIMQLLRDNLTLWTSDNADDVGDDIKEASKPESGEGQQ", "UniProt P93211": "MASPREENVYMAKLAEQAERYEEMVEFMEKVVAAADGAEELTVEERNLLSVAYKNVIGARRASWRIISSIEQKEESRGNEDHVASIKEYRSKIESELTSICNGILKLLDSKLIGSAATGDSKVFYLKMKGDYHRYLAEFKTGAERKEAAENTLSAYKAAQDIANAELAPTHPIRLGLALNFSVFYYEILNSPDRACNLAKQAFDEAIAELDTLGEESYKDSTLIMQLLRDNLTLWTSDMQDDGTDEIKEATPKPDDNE", "UniProt P93212": "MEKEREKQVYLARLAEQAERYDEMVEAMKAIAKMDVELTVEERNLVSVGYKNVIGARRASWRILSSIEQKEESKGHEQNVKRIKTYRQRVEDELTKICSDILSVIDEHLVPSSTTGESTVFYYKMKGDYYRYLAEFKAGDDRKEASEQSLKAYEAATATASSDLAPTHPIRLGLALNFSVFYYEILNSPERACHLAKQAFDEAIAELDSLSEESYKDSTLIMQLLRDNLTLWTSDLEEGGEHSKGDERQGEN", "UniProt P93213": "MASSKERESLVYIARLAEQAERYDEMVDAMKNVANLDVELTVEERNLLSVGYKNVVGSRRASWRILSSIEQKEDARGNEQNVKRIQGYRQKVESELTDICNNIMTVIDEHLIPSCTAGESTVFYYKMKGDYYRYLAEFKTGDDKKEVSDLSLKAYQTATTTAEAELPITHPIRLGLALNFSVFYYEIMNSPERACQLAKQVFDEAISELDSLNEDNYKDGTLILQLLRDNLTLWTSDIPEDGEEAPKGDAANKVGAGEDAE", "UniProt P93214": "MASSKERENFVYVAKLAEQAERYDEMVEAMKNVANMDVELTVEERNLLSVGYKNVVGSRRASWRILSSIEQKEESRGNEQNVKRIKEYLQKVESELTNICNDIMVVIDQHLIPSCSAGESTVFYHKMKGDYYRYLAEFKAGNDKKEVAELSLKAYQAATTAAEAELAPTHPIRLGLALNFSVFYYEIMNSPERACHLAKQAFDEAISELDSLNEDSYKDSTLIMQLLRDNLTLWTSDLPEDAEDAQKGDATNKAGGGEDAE"},
  "source": "paper PMC10160066",
  "molecules": {"B1": {"name": "TFT3-GFP (protein, UniProt P93209 1-260)", "chain": "MAVVAPTAREENVYMAKLADRAESDEEMVEFMEKVSNSLGSEELTVEERNLLSVAYKNVIGARRASWRIISSIEQKEESRGNEEHVNSIREYRSKIENELSKICDGILKLLDSKLIPSATSGDSKVFYLKMKGDYHRYLAEFKTGAERKEAAESTLTAYKAAQDIASAELAPTHPIRLGLALNFSVFYYEILNSPDRACNLAKQAFDEAIAELDTLGEESYKDSTLIMQLLRDNLTLWTSDMQDDGADEIKEDPKPEEKN"}, "B2": {"name": "TFT3-FLAG (protein, UniProt P93209 1-260)", "chain": "B1 chain"}, "B3": {"name": "Pto-FLAG (enzyme, UniProt Q40234 1-321)", "chain": "MGSKYSKATNSINDALSSSYLVPFESYRVPLVDLEEATNNFDHKFLIGHGVFGKVYKGVLRDGAKVALKRRTPESSQGIEEFETEIETLSFCRHPHLVSLIGFCDERNEMILIYKYMENGNLKRHLYGSDLPTMSMSWEQRLEICIGAARGLHYLHTRAIIHRDVKSINILLDENFVPKITDFGISKKGTELDQTHLSTVVKGTLGYIDPEYFIKGRLTEKSDVYSFGVVLFEVLCARSAIVQSLPREMVNLAEWAVESHNNGQLEQIVDPNLADKIRPESLRKFGDTAVKCLALSSEDRPSMGDVLWKLEYALRLQESVI"}, "B4": {"name": "Pto^L205D (enzyme, UniProt Q40234 1-321)", "chain": "B3 chain with L205D"}, "B5": {"name": "Pto^D164N-FLAG (enzyme, UniProt Q40234 1-321)", "chain": "B3 chain with D164N"}, "B6": {"name": "Pto, split-luciferase fusion (enzyme, UniProt Q40234 1-321)", "chain": "B3 chain"}, "B7": {"name": "Pto^S198T199/AA (enzyme, UniProt Q40234 1-321)", "chain": "B3 chain with S198A, T199A"}},
  "key": {"TFT10-GFP (tomato)": {"biological_target": "TFT10-GFP (tomato) (UniProt P93207)", "test": "co-IP; constructs co-expressed in N. benthamiana leaves; extract incubated with GFP-Trap, Myc-Trap, anti-FLAG M2 or anti-HA agarose beads for 2 h at 4 °C, five washes, immunoblot; the Prf-Pto pair was tested with and without AvrPto co-expressed"}, "TFT2-GFP (tomato)": {"biological_target": "TFT2-GFP (tomato) (UniProt P93208)", "test": "co-IP; constructs co-expressed in N. benthamiana leaves; extract incubated with GFP-Trap, Myc-Trap, anti-FLAG M2 or anti-HA agarose beads for 2 h at 4 °C, five washes, immunoblot; the Prf-Pto pair was tested with and without AvrPto co-expressed"}, "TFT4-GFP (tomato)": {"biological_target": "TFT4-GFP (tomato) (UniProt P42652)", "test": "co-IP; constructs co-expressed in N. benthamiana leaves; extract incubated with GFP-Trap, Myc-Trap, anti-FLAG M2 or anti-HA agarose beads for 2 h at 4 °C, five washes, immunoblot; the Prf-Pto pair was tested with and without AvrPto co-expressed"}, "TFT5-GFP (tomato)": {"biological_target": "T1, TFT5-GFP (tomato) (UniProt P93210)", "T1 sequence": "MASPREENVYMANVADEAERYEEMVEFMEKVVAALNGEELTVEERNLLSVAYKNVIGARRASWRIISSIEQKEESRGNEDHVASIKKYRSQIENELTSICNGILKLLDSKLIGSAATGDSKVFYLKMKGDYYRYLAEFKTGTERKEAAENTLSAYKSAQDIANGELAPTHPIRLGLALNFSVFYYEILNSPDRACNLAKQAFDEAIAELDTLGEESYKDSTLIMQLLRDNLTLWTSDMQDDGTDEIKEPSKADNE", "test": "co-IP; constructs co-expressed in N. benthamiana leaves; extract incubated with GFP-Trap, Myc-Trap, anti-FLAG M2 or anti-HA agarose beads for 2 h at 4 °C, five washes, immunoblot; the Prf-Pto pair was tested with and without AvrPto co-expressed"}, "TFT6-GFP (tomato)": {"biological_target": "TFT6-GFP (tomato) (UniProt P93211)", "test": "co-IP; constructs co-expressed in N. benthamiana leaves; extract incubated with GFP-Trap, Myc-Trap, anti-FLAG M2 or anti-HA agarose beads for 2 h at 4 °C, five washes, immunoblot; the Prf-Pto pair was tested with and without AvrPto co-expressed"}, "TFT7-GFP (tomato) [1]": {"biological_target": "TFT7-GFP (tomato) (UniProt P93212)", "test": "co-IP; constructs co-expressed in N. benthamiana leaves; extract incubated with GFP-Trap, Myc-Trap, anti-FLAG M2 or anti-HA agarose beads for 2 h at 4 °C, five washes, immunoblot; the Prf-Pto pair was tested with and without AvrPto co-expressed"}, "TFT8-GFP (tomato)": {"biological_target": "TFT8-GFP (tomato) (UniProt P93213)", "test": "co-IP; constructs co-expressed in N. benthamiana leaves; extract incubated with GFP-Trap, Myc-Trap, anti-FLAG M2 or anti-HA agarose beads for 2 h at 4 °C, five washes, immunoblot; the Prf-Pto pair was tested with and without AvrPto co-expressed"}, "TFT9-GFP (tomato)": {"biological_target": "TFT9-GFP (tomato) (UniProt P93214)", "test": "co-IP; constructs co-expressed in N. benthamiana leaves; extract incubated with GFP-Trap, Myc-Trap, anti-FLAG M2 or anti-HA agarose beads for 2 h at 4 °C, five washes, immunoblot; the Prf-Pto pair was tested with and without AvrPto co-expressed"}, "TFT3-GFP (tomato)": {"biological_target": "T2, TFT3-GFP (tomato) (UniProt P93209)", "T2 sequence": "B1 chain", "test": "co-IP; constructs co-expressed in N. benthamiana leaves; extract incubated with GFP-Trap, Myc-Trap, anti-FLAG M2 or anti-HA agarose beads for 2 h at 4 °C, five washes, immunoblot; the Prf-Pto pair was tested with and without AvrPto co-expressed"}, "TFT1-GFP (tomato)": {"biological_target": "T3, TFT1-GFP (tomato) (UniProt P93206)", "T3 sequence": "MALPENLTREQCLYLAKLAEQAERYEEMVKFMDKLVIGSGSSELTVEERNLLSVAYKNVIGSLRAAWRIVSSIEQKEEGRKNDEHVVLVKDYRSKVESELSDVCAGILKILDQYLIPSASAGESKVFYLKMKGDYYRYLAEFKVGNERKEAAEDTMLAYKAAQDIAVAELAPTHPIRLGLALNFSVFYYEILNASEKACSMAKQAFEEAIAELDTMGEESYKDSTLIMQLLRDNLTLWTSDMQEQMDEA", "test": "co-IP; constructs co-expressed in N. benthamiana leaves; extract incubated with GFP-Trap, Myc-Trap, anti-FLAG M2 or anti-HA agarose beads for 2 h at 4 °C, five washes, immunoblot; the Prf-Pto pair was tested with and without AvrPto co-expressed"}, "TFT1-Myc (tomato)": {"biological_target": "T4, TFT1-Myc (tomato) (UniProt P93206)", "T4 sequence": "T3 sequence", "test": "co-IP; constructs co-expressed in N. benthamiana leaves; extract incubated with GFP-Trap, Myc-Trap, anti-FLAG M2 or anti-HA agarose beads for 2 h at 4 °C, five washes, immunoblot; the Prf-Pto pair was tested with and without AvrPto co-expressed"}, "TFT7-GFP (tomato) [2]": {"biological_target": "TFT7-GFP (tomato) (UniProt P93212)", "test": "co-IP; constructs co-expressed in N. benthamiana leaves; extract incubated with GFP-Trap, Myc-Trap, anti-FLAG M2 or anti-HA agarose beads for 2 h at 4 °C, five washes, immunoblot; the Prf-Pto pair was tested with and without AvrPto co-expressed", "remark": "listed apart in the source"}, "[3]": {"biological_target": "T5, TFT1, split-luciferase fusion (tomato) (UniProt P93206)", "T5 sequence": "T3 sequence", "test": "split reporter; split-luciferase; NLUC and CLUC fusions co-infiltrated into N. benthamiana leaves; luminescence imaged 3 days post-infiltration"}, "[4]": {"biological_target": "T6, TFT3, split-luciferase fusion (tomato) (UniProt P93209)", "T6 sequence": "B1 chain", "test": "split reporter; split-luciferase; NLUC and CLUC fusions co-infiltrated into N. benthamiana leaves; luminescence imaged 3 days post-infiltration"}},
  "note": "Where a chain is given by its changes, count along the chain named. Names and notes keep the numbering of the source. Where two headings read alike, the source gives them in different places. These are yes or no findings as the source states them, for the method shown. Binding seen in cells or lysates may run through a third protein. Some results given as binding are weak or reduced against the parent protein; the word gives no strength. For some assays here: Tags and fused reporters may be left off the sequences shown.",
  "data": [
    {"molecule": "TFT3-FLAG (from UniProt P93209 1-260)", "values": [
      {"measurement": "binding", "setting": "TFT10-GFP (tomato)", "value": "no binding"},
      {"measurement": "binding", "setting": "TFT2-GFP (tomato)", "value": "no binding"},
      {"measurement": "binding", "setting": "TFT4-GFP (tomato)", "value": "no binding"},
      {"measurement": "binding", "setting": "TFT5-GFP (tomato)", "value": "no binding"},
      {"measurement": "binding", "setting": "TFT6-GFP (tomato)", "value": "no binding"},
      {"measurement": "binding", "setting": "TFT7-GFP (tomato) [1]", "value": "no binding"},
      {"measurement": "binding", "setting": "TFT8-GFP (tomato)", "value": "no binding"},
      {"measurement": "binding", "setting": "TFT9-GFP (tomato)", "value": "no binding"}
    ]},
    {"molecule": "B1", "values": [
      {"measurement": "binding", "setting": "TFT3-GFP (tomato)", "value": "binds"}
    ]},
    {"molecule": "B2", "values": [
      {"measurement": "binding", "setting": "TFT1-GFP (tomato)", "value": "binds"}
    ]},
    {"molecule": "B3", "values": [
      {"measurement": "binding", "setting": "TFT1-GFP (tomato)", "value": "binds"},
      {"measurement": "binding", "setting": "TFT1-Myc (tomato)", "value": "binds"},
      {"measurement": "binding", "setting": "TFT3-GFP (tomato)", "value": "binds"},
      {"measurement": "binding", "setting": "TFT7-GFP (tomato) [2]", "value": "no binding"}
    ]},
    {"molecule": "B4", "values": [
      {"measurement": "binding", "setting": "TFT3-GFP (tomato)", "value": "binds"}
    ]},
    {"molecule": "B5", "values": [
      {"measurement": "binding", "setting": "TFT1-Myc (tomato)", "value": "binds"},
      {"measurement": "binding", "setting": "TFT3-GFP (tomato)", "value": "binds"}
    ]},
    {"molecule": "B6", "values": [
      {"measurement": "binding", "setting": "[3]", "value": "binds"},
      {"measurement": "binding", "setting": "[4]", "value": "binds"}
    ]},
    {"molecule": "B7", "values": [
      {"measurement": "binding", "setting": "TFT3-GFP (tomato)", "value": "binds"}
    ]}
  ]
}
